Source: PubChem BioAssay AID360 (National Center for Advancing Translational Sciences (NCATS), 2006)
The whole screen tested about 48,000 compounds, of which about 550 (1.1%) were called active. Another 4% or so got no clear call; they are omitted. Rule as the data show it: active = potency below about 15 µM; inconclusive = mostly about 16 µM to 33 µM; inactive = weaker than that. Some of the results follow.

Biological target: Lysosomal acid glucosylceramidase (Homo sapiens) (UniProt P04062)
Test: Glucocerebrosidase;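 also: the screen sought inhibitors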
Settings: purified enzyme, resorufin glucoside fluorescence (screen aimed at inhibitors), 20 min
Procedure, shortened: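 Normal human glucocerebrosidase (0.2 nM final) was assayed with resorufin β-D-glucopyranoside (30 uM final) in 50mM citric acid/KH2PO4, 10mM sodium taurocholate, 0.01% tween-20, pH 5.9. Compounds were titrated; fluorescence (Ex 548, Em 600) read after 20 min at RT.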
Potency is read from the fitted curve at half-maximal effect.

UniProt P04062, sequence (P04062 whole entry, looked up): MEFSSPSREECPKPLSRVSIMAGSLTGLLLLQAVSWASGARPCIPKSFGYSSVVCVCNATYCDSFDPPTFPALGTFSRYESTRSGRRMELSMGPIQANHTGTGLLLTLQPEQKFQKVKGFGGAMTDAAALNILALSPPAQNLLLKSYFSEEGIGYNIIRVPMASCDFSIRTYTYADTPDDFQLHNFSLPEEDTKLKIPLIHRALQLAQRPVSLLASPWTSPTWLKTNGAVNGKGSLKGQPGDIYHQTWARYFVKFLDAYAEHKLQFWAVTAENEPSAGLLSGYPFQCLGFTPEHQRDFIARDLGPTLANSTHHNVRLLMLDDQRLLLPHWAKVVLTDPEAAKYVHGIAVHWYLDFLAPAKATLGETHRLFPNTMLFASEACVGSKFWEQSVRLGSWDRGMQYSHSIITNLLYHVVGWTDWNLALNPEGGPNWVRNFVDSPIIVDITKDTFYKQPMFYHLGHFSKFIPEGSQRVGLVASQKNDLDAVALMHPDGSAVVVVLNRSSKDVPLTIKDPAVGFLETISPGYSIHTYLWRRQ

Potency, inactive:
O=C(Nc1nc(-c2cccs2)c(-c2ccccc2)s1)c1ccco1 > 76.9 µM
O=C(O)c1n[nH]c2c1CCCC2 > 76.9 µM
CCOC(=O)N1CCN(S(=O)(=O)c2ccc3c(c2)SC(C)C(=O)N3)CC1 (stereo not given) > 76.9 µM
COC(=O)c1ccccc1NC(=O)CN1CCC(n2nnc3cc(C)ccc32)CC1 > 76.9 µM
O=C(O)CSc1ccccn1 > 76.9 µM
Nc1nc(SCC(=O)C23CC4CC(CC(C4)C2)C3)n[nH]1 > 76.9 µM
COc1ccc(NC(=O)CCNS(=O)(=O)c2ccc3c(c2)c(=O)n(C)c(=O)n3C)cc1 > 76.9 µM
CCc1nn2cc(-c3ccccc3)nc2s1 > 76.9 µM
Cc1cc(NC(=O)COc2nnc(-c3ccccc3)c3ccccc23)no1 > 76.9 µM
Cc1ccc(-c2nc3ncccc3o2)cc1NC(=O)c1ccco1 > 76.9 µM
Cc1ccc(C)c(C(=O)NC2CC(C)(C)NC(C)(C)C2)c1 > 76.9 µM
CCN=C1SC(C(N)=O)CC(=O)N1CC (stereo not given) > 76.9 µM
O=S(=O)(Nc1nc2ccccc2nc1NCC1CCCO1)c1cccs1 (stereo not given) > 76.9 µM
Cc1ccc(CN(C)CCc2ccccn2)cc1 > 76.9 µM
CC(=O)Nc1cccc(N2C(=O)CC(N3CCC(C(=O)N4CCCCC4)CC3)C2=O)c1 (stereo not given) > 76.9 µM
CCc1c(O)nc(SCC(N)=O)n(-c2ccccc2F)c1=O > 76.9 µM
Cc1ccc(S(=O)(=O)N2CCC(C(=O)N3CCC[C@H]3C(=O)NCc3ccco3)CC2)cc1 > 76.9 µM
c1ccc(CCNc2c3c(nc4ncnn24)CCC3)cc1 > 76.9 µM
Cc1ccc(-c2nnc(N(C)C(=O)C3CCCO3)s2)cn1 (stereo not given) > 76.9 µM
COc1ccc(C2CC(=O)c3cnc(N)nc3C2)c(OC)c1 (stereo not given) > 76.9 µM
Cc1ccc2oc3c(c(=O)c2c1)C(c1cccc(Br)c1)N(Cc1ccco1)C3=O (stereo not given) > 76.9 µM
N#C/C(=C\Nc1ccc2c(c1)OCCO2)c1nc2ccccc2[nH]1 > 76.9 µM
O=C(O)C1CCCCC1C(=O)Nc1ccc(Cl)cc1 (stereo not given) > 76.9 µM
O=C(NC1CCCCCC1)c1cc(S(=O)(=O)N2CCOCC2)ccc1N1CCCCC1 > 76.9 µM
COCCN1C(=O)c2ccccc2C(C(=O)NCCN(C)C)C1c1ccc(F)cc1 (stereo not given) > 76.9 µM
CCCCC(=O)N1CC2(C)CN(C(=O)CCCC)CC(C)(C1)C2=O > 76.9 µM
COc1ccc(-c2nc(C#N)c(N3CCCCCC3)o2)cc1OC > 76.9 µM
COc1cccc(-n2c(SC3CCOC3=O)nc3ccccc3c2=O)c1 (stereo not given) > 76.9 µM
Cc1ccc2c(c1)nnn2C1CCN(C(=O)C2CCCCC2)CC1 > 76.9 µM
Cn1c(SCC(=O)NCc2cccs2)nnc1-c1cccs1 > 76.9 µM
COc1nnc(-c2ccc(C(=O)N3C[C@@H]4C[C@H](C3)c3cccc(=O)n3C4)cc2)c2ccccc12 > 76.9 µM
O=C(NCCCN1CCCCCC1)c1ccc2c(c1)NC(=O)C(N1CCOCC1)S2 (stereo not given) > 76.9 µM
O=C(NCC(c1ccc(F)cc1)N1CCOCC1)c1ccc(Br)o1 (stereo not given) > 76.9 µM
COc1ccc(C2C(C(C)=O)=C(C)Nc3ncnn32)cc1OC (stereo not given) > 76.9 µM
CN(C(=O)CSc1nc(-c2ccc(F)cc2)cs1)C1CCS(=O)(=O)C1 (stereo not given) > 76.9 µM
CC(C)CC(OC(=O)c1ccco1)C(=O)NC1CCCCC1 (stereo not given) > 76.9 µM
CCOC(=O)c1[nH]c(C)c(C(=O)NCc2ccc(Cl)cc2)c1C > 76.9 µM
CC(=C1C(=O)c2ccccc2C1=O)N1CCN(c2ccccn2)CC1 > 76.9 µM
Cc1sc(NC(=O)CSc2nnc(COc3ccccc3)n2C)c(C#N)c1C > 76.9 µM
Cc1ccc(C)c(N2CCN(C(=O)CCCOc3cc(=O)n(C)c4ccccc34)CC2)c1 > 76.9 µM
COc1ccc(CC(=O)n2nc(-c3ccccc3)nc2NCc2ccco2)cc1 > 76.9 µM
CCC(=O)N1CCc2cc(S(=O)(=O)NC(C(=O)NCc3ccc(C)cc3)C(C)C)ccc21 (stereo not given) > 76.9 µM
CCOC(=O)N1CCC(NC(=O)CCS(=O)(=O)c2ccc3c(c2)CCN3C(C)=O)CC1 > 76.9 µM
Cc1ccc2c(c1)[nH]c1c(=O)n(CCN3CCNCC3)cnc12 > 76.9 µM
Cc1ccc(N(CC(N)=O)C2SC(=O)N(Cc3ccccc3)C2=O)cc1 (stereo not given) > 76.9 µM
c1csc(-n2nc3ccccc3n2)c1 > 76.9 µM
Cc1cc(C)n(C(=O)C(C)N2C(=O)c3ccccc3C2=O)n1 (stereo not given) > 76.9 µM
Cc1cccc(S(=O)(=O)c2c(N)n(Cc3ccco3)c3nc4ccccc4nc23)c1 > 76.9 µM
Cn1c(=O)c2c(-c3ccccc3)n(Cc3ccccn3)cc2n(C)c1=O > 76.9 µM
CCOC(=O)C(NC(=O)c1ccccc1)(N1CCCC1=O)C(F)(F)F (stereo not given) > 76.9 µM
O=C(O)C1CCCN(C(=O)NCc2ccccc2)C1 (stereo not given) > 76.9 µM
O=C(O)c1cccc(S(=O)(=O)NCC2CCCO2)c1 (stereo not given) > 76.9 µM
O=C(Cn1cnc2ccccc2c1=O)NCCC(=O)N1CCN(Cc2ccccc2)CC1 > 76.9 µM
O=C(Nc1ccccn1)C12CC3CC(C1)CC(C(=O)Nc1ccccn1)(C3)C2 > 76.9 µM
Cc1cc(C)cc(NC(=O)CSc2nnc(CNC(=O)c3cccs3)o2)c1 > 76.9 µM
CCOc1ccccc1NC(=O)c1cc(Cl)ccc1NC(=O)c1ccco1 > 76.9 µM
CNC(=O)c1ccccc1NC(=O)c1c(O)c2c([nH]c1=O)CCCC2 > 76.9 µM
CCCN1C(=O)c2ccc(C(=O)NC3CCCCC3)cc2C1=O > 76.9 µM
O=C(c1ccco1)N1CCN(C(=O)C(Sc2ccccc2)c2ccccc2)CC1 (stereo not given) > 76.9 µM
Cc1ccc(Nc2oc(C)nc2C#N)cc1 > 76.9 µM
CCCCn1nnnc1SCC(=O)Nc1cccc(C)n1 > 76.9 µM
COc1ccc(C)cc1NC(=O)C1CCCCC1C(=O)O (stereo not given) > 76.9 µM
CCc1cccc2c(C#N)cn(CCOc3ccccc3OC)c12 > 76.9 µM
Cn1c(CCC(=O)Nc2ccc(N3CCOCC3)cc2)nc(=O)c2ccccc21 > 76.9 µM
N#Cc1cc2c(nc1SCc1cccnc1)CCC2 > 76.9 µM
Cc1ccc2nc3c(cc(C(=O)NCC4CCCO4)c(=N)n3CCCOC(C)C)c(=O)n2c1 (stereo not given) > 76.9 µM
O=C1CC(c2ccc(F)cc2)Sc2ccccc2N1 (stereo not given) > 76.9 µM
CC(C)CCNC(=O)C(c1ccco1)N(CC1CCCO1)C(=O)Cn1nnc2ccccc21 (stereo not given) > 76.9 µM
Cc1cc(C)cc(N2C(=O)CSC2c2cccs2)c1 (stereo not given) > 76.9 µM
COc1cccc(CN2C(=O)CN(C3CCCCC3)C(=O)C2c2ccc(F)cc2)c1 (stereo not given) > 76.9 µM
Cc1n[nH]c(C)c1S(=O)(=O)N1CCCC(C(=O)Nc2ccc3c(c2)OCCO3)C1 (stereo not given) > 76.9 µM
CN(Cc1ccccc1)C(=O)N[C@@H](Cc1ccccc1)C(=O)O > 76.9 µM
Cc1ccc2oc(=O)n(Cc3ccccc3OC(C)C)c2c1 > 76.9 µM
COc1ccc2c(c1)CC(C1(O)C(=O)Nc3ccccc31)C2=O (stereo not given) > 76.9 µM
CC(C)CCn1c(N2CCOCC2)nc2c1c(=O)n(CC(N)=O)c(=O)n2C > 76.9 µM
COC(=O)Cn1c2ccc(OC)cc2c2nc3ccccc3nc21 > 76.9 µM
COc1ccc(NC(=O)C2CCCN(c3c4c(nc5ncnn35)CCC4)C2)cc1 (stereo not given) > 76.9 µM
CCn1c(SCC(=O)N2CC(=O)Nc3ccccc32)nnc1-c1ccoc1C > 76.9 µM
CCOc1nc(NCc2ccco2)nc(Nc2ccc(OC)cc2)n1
COc1ccc(NC(=O)C2CC(c3cc(OC)c(OC)c(OC)c3)=NO2)cc1OC (stereo not given) > 76.9 µM
O=C1NC(c2ccc3c(c2)OCO3)Oc2ccccc21 (stereo not given) > 76.9 µM
CN1CCCC(C(=O)C(C#N)c2ccccc2)C1 (stereo not given) > 76.9 µM
CS(=O)(=O)N(CCc1ccccc1)CC(N)=O > 76.9 µM
Cc1cc(C(=O)Nc2cccc3ncccc23)no1 > 76.9 µM
Cc1ccc(CS(=O)(=O)CCC(=O)NCCN2CCCCC2C)cc1 (stereo not given) > 76.9 µM
CCCn1c(=O)c2ccccc2n2c(SCC(=O)NCc3cccs3)nnc12 > 76.9 µM
Cc1ccc2c(c1)[nH]c1c(=O)n(CCN3CCCCC3)cnc12 > 76.9 µM
Cc1ccc(-c2nnn(CC(=O)N3CCN(c4nc5ccccc5s4)CC3)n2)cc1 > 76.9 µM
Cc1cc(=O)[nH]c(SCCOc2ccc(OC(C)C)cc2)n1 > 76.9 µM
Cc1nn(C(=O)CCCC(=O)n2nc(C)c(Cl)c2C)c(C)c1Cl > 76.9 µM
